Experimental data reported in PubChem BioAssay AID1030 (National Center for Advancing Translational Sciences (NCATS), 2008).
Several values for one entry are separate records, joined by “and”; a condition that tells them apart may be missing. Equal values may be shown once. The whole screen tested about 220,000 compounds, of which about 16,000 (7.3%) were called active. Inconclusive means that the source gave no clear call. Such entries were picked first, then a sample of the others. The call rests on the fitted dose curve; in most records, active means well fitted inhibition curve with a large enough effect (not every such curve was filed as active); inconclusive means small, poorly fitted or top-dose-only effect, or another doubt; inactive means no such curve, though single readings can be large or run the other way. No potency is given beside an inconclusive call; the fits are too rough.

Target: Aldehyde dehydrogenase 1A1 (Homo sapiens) (UniProt P00352)
UniProt P00352, sequence (P00352 whole entry, looked up): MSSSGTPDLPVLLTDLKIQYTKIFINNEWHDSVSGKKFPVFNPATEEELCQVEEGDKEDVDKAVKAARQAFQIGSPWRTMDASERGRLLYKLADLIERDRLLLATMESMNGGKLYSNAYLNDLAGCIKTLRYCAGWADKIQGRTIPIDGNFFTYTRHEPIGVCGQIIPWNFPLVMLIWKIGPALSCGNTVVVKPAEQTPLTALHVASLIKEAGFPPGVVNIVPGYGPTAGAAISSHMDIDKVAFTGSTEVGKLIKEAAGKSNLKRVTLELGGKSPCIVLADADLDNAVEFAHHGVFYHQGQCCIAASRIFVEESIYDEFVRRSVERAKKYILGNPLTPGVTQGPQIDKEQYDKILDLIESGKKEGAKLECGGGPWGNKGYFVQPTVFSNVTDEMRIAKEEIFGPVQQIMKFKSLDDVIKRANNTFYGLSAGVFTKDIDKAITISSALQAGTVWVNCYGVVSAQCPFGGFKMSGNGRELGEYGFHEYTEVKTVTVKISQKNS
Assay: qHTS Assay for Inhibitors of Aldehyde Dehydrogenase 1 (ALDH1A1);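 on activity, negative = inhibition: plate controls were no enzyme wells and a reference inhibitor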
Settings: Purified ALDH1A1, NADH fluorescence, propionaldehyde substrate; series mostly up to 75.3 µM
Potency means the concentration at half of the fitted maximal effect; tags describe the fitted curve by direction and shape.

Structure (SMILES) | Potency | activity, negative = inhibition
COc1cccc(CC(=O)N2CCc3nc(-c4ccc(OC)cc4C)c4c(c3C2)CO[C@@H](c2ccccc2)C4)c1 | active: 3.98 µM | 
C/C(=N\NC(=O)c1cccnc1)c1cc(C)oc1C | inactive | 
Cc1sc(NC(=S)NC(=O)c2ccc(C(C)(C)C)cc2)c(C#N)c1C | inconclusive [inhibitor, partial curve] | 
CCc1ccc2oc(-c3ccc(OC)cc3)cc(=Nc3c(C)n(C)n(-c4ccccc4)c3=O)c2c1 | inconclusive [inhibitor, partial curve] | 
CCOC(=O)c1c(-c2cccc(C)c2)csc1NC(=O)C1CC=CCC1C(=O)O (stereo unspecified) | inconclusive [inhibitor, single point] | 
O=C(COc1ccc(S(=O)(=O)NC2CCCCC2)cc1)Nc1ccc2c(c1)OCCO2 | inconclusive [inhibitor, single point] | 
CC(C)(C)n1cnc(C(N)=O)c1N | active: 10 µM | 
Cn1[nH]c(C(F)(F)F)c(C=Nc2ccc(Cl)cc2)c1=O | inactive | 
CCCCc1cc2c(c(NC(=O)CC)n1)c(=O)oc1ccccc12 | inconclusive [inhibitor, single point] | 
CCOc1ccc2c(c1)c1nnc(SCC(=O)N3CCCCC3C)nc1n2C (stereo unspecified) | active: 12.6 µM | 
CCCCSc1nc(NCc2ccco2)c2c3c(sc2n1)COC(C)(C)C3 | inconclusive [inhibitor, single point] | 
CCCc1cc2c(=O)c(-c3ccc4c(c3)OCCO4)coc2cc1OC(=O)c1ccco1 | inconclusive [inhibitor, full curve] | 
Cc1cc(C(=O)N[C@H](c2ccccc2)[C@@]2(C)C[C@@H]2[C@@H](C)C(=O)Nc2ccc3ccccc3c2)n(C)n1 | active: 5.01 µM and active: 15.8 µM | 
COc1ccc(-c2cc(OC)c3ccccc3n2)cc1 | inconclusive [inhibitor, single point] | 
CCC(C)N1C(=O)S/C(=C/c2ccc(N3CCOCC3)cc2C)C1=O (stereo unspecified) | active: 10 µM | 
CC1=C(C(=O)NCc2ccccc2)C(c2cccs2)NC(=S)N1 (stereo unspecified) | inconclusive [inhibitor, full curve] | 
Cc1nc(-c2cccc(S(=O)(=O)N3CC(C)OC(C)C3)c2)cs1 (stereo unspecified) | inactive | 
Cn1c(SCc2cnc(-c3ccccc3)s2)nnc1C1COc2ccccc2O1 (stereo unspecified) | active: 12.6 µM | 
COc1cc(C2C(C#N)=C(N)OC3=C2C(=O)CC(C)(C)C3)cc([N+](=O)[O-])c1O (stereo unspecified) | inactive | 
Cc1onc(CO)c1C(=O)Nc1nccs1 | inactive | 
C=CCn1c(SCC(=O)c2ccc(F)cc2)nnc1-c1ccc2c(c1)OCO2 | inactive | 
Cn1cnnc1SCC(=O)Nc1ccccc1C(=O)NC1CC1 | inconclusive [inhibitor, single point] | 
Cc1nn(-c2ccccc2)c(C)c1/C=N/Nc1nc2ccccc2[nH]1 | inactive | 
Cc1ccc(C(=O)N2CCN(c3ccc([N+](=O)[O-])c(N4CCOCC4)c3)CC2)cc1 | inconclusive [inhibitor, partial curve] | 
O=C(CN1CCN(c2ncccn2)CC1)Nc1ccccc1-n1cccc1 | active: 14.1 µM | 
COCOc1ccc(Br)cc1C(=O)[C@H]1O[C@H]1c1cccc(OC)c1 |  | inactive: 1.47% [at 13.5 µM]

Structure (SMILES) | Potency | activity, negative = inhibition
COc1ccc(-c2c(C)cc3oc(=O)cc(-c4ccccc4)c3c2C)cc1C=O | active: 0.126 µM | 
COCCCNC(=S)Nc1ccc(C)cc1[N+](=O)[O-] | inconclusive [inhibitor, single point] | 
N#Cc1ccccc1-c1cncnc1NCc1cccnc1 | active: 28.2 µM | 
CC(C)(C)c1cc(OS(C)(=O)=O)ccc1O | inconclusive [inhibitor, single point] | 
COC(=O)c1c(NC(=O)C(Cl)Cl)sc2c1C(C(=O)OC)CC2 (stereo unspecified) | active: 0.891 µM | 
Cc1[nH][nH]c(=O)c1C(c1ccc([N+](=O)[O-])cc1)c1c(C)[nH][nH]c1=O | inconclusive [inhibitor, single point] | 
Cc1ccccc1C(=O)Nc1cccc(NC(=S)NC(=O)c2cccs2)c1 | inconclusive [inhibitor, partial curve] | 
O=S(=O)(Nc1nc2ccccc2nc1NCc1ccco1)c1ccc(Cl)cc1 | inconclusive [inhibitor, partial curve] | 
CCCN(CCC)S(=O)(=O)c1ccc(Cl)c([N+](=O)[O-])c1 | inconclusive [inhibitor, single point] | 
N#Cc1ccccc1OCC(=O)NC(=O)NCc1ccccc1 | inconclusive [inhibitor, single point] | 
CCOC(=O)c1c(C)oc2c1c1c(c3ccccc32)OCN(CCCC(=O)O)C1 | active: 7.94 µM | 
CCOC(=O)c1[nH]c(C)c(C(=O)OCC(=O)N2CCCCC2C)c1C (stereo unspecified) | inconclusive [inhibitor, partial curve, poor fit] | 
CC(C)OC(=O)CC1C(=O)NCCN1C(=S)NC(=O)c1ccc(F)cc1 (stereo unspecified) | inconclusive [inhibitor, single point] | 
Cc1ccnc(NC(c2ccccc2O)c2oc(CO)cc(=O)c2O)c1 (stereo unspecified) | active: 12.6 µM | 
COc1ccc(NS(=O)(=O)c2csc(C(=O)Nc3ccccc3)c2)cc1 | inconclusive [inhibitor, single point] | 
Cc1c(-c2ccnc3cc(C(=O)O)nn23)cnn1C | inconclusive [inhibitor, partial curve] | 
CC(/C=C/c1ccco1)=N\NC(=O)CNc1cccc(C)c1 | inconclusive [inhibitor, single point] | 
O=C(Nc1nnc(SCc2c(Cl)cccc2Cl)s1)C1CCCO1 (stereo unspecified) | inconclusive [inhibitor, single point] | 
O=C(Cn1ccc(C(F)(F)F)n1)Nc1cccc(S(=O)(=O)N2CCCCC2)c1 | inactive | 
O=C(Nc1nc2ccccc2s1)NC1CCCCC1 | inconclusive [inhibitor, single point] | 
CC1(C)Cc2cccc(C(=O)NC3CCN(Cc4ccccc4)CC3)c2O1 | inactive | 
COc1ccccc1C(=O)N1CCN(c2nc3cc(C)c(C)cc3cc2C#N)CC1 | inconclusive [inhibitor, single point] | 
COC(=O)C1=C(N)Oc2cc(C)n(Cc3cccnc3)c(=O)c2C1c1ccccc1OC (stereo unspecified) | inconclusive [inhibitor, partial curve] | 
Cc1ccccc1NC(=O)NC1(C(=O)N2CCOCC2)CCCCC1 | inactive | 
COC(=O)c1ccc(NC(C)=O)o1 | inactive | 
Cc1ccc(-n2c(C)cc(/C=N/Nc3ccc([N+](=O)[O-])cn3)c2C)cc1 | active: 10 µM | 

Structure (SMILES) | Potency | activity, negative = inhibition
CCOc1ccc(S(=O)(=O)N(CC(=O)N/N=C/c2cccs2)c2ccc(C)cc2)cc1 | inactive | 
NC(=O)N1CCN(C(=O)c2ccco2)CC1 | active: 20 µM | 
O=C(Nc1ccc(N2CCCCC2)c(Cl)c1)c1ncn[nH]1 | inactive | 
O=C(c1ccc(Cl)c(Cl)c1)N1CCCC1 | inactive | 
COc1cc(Cl)c(C)cc1NC(=O)CSc1ccccc1 | inconclusive [inhibitor, partial curve] | 
CN(Cc1ccc(OCC(O)CN2CCCCC2)cc1)Cc1ccnc2ccccc12 (stereo unspecified) | inconclusive [inhibitor, single point] | 
Cc1ccc(Nc2nnc(-c3ccc4c(c3)OCO4)o2)c(C)c1 | active: 18.9 µM | 
Cc1ccc(NC(=O)C(Cc2ccccc2)N2C(=O)C3C4CCC(C4)C3C2=O)cc1Cl (stereo unspecified) | inconclusive [inhibitor, single point] | 
COc1ccc(C(=O)CC2OC(=O)c3c2ccc(OC)c3OC)cc1 (stereo unspecified) | inconclusive [inhibitor, partial curve] | 
COc1cccc(/C=N/N2CCN(C)CC2)c1 | inactive | 
CN(C)c1nc(N(C)C)nc(N2CC(CCl)OC2=N)n1 (stereo unspecified) | inconclusive [inhibitor, partial curve] | 
Fc1ccccc1CSc1nc2ncc(Br)cc2[nH]1 | inactive | 
CC(C)CN1C(=O)c2ccc(C(=O)Nc3ccncc3)cc2C1=O | active: 0.631 µM | 
CC(=O)c1ccc(N2CCN(S(=O)(=O)c3cccc4nonc34)CC2)cc1 | inconclusive [inhibitor, single point] | 
COc1ccc(C2C(C#N)=C(N)Oc3c2sc2nc(C)cc(C)c32)cc1 (stereo unspecified) | inactive | 
CC1CCCN(c2ccc(C(=O)NCC3CCCO3)cn2)C1 (stereo unspecified) | inactive | 
CC(C)CC1C(C#N)=C(N)SC(N)=C1C#N | active: 3.55 µM | 
O=c1c2ccccc2nnn1CSc1nnc(COc2ccc(Cl)cc2)n1Cc1ccco1 | inconclusive [inhibitor, single point] | 
O=C(Oc1ccc(Br)cc1)c1n[nH]c(=O)c2ccccc12 | inconclusive [inhibitor, partial curve] | 
COc1cc(C2C3CN(C)CC=C3C(C#N)=C(N)C2(C#N)C#N)ccc1OC(C)C (stereo unspecified) | inconclusive [inhibitor, single point] | 
COc1ccc(Cl)cc1Nc1nc(-c2sc(NC(=O)c3ccccc3)nc2C)cs1 | inconclusive [inhibitor, single point] | 
CCNC(=O)NC(=O)COc1ccccc1C#N | inactive | 
Cc1ccc(N(C(=O)c2cccs2)C2C=CS(=O)(=O)C2)cc1 (stereo unspecified) | inconclusive [inhibitor, single point] | 
CCOC(=O)N1CCN(C(=O)CN(c2ccccc2OC)S(=O)(=O)c2ccc(C)cc2)CC1 | inactive | 
